Assay results taken from PubChem BioAssay AID1476 (National Center for Advancing Translational Sciences (NCATS), 2009).
In all, about 200,000 compounds went through this assay and about 4,500 (2.2%) were called active. The inconclusive results got no clear call from the source; some entries with a clear call stand among them for comparison. Calls come from the whole dose curve; as a rule, active = well fitted inhibition curve with a large enough effect; inconclusive = small, poorly fitted or top-dose-only effect, or effect the other way; inactive = flat fitted curve, though single readings scatter. Where the call is inconclusive, the potency comes from a doubtful curve fit.

Each compound was assayed against Cruzipain (Trypanosoma cruzi) (UniProt P25779) (assay: qHTS Assay for Promiscuous and Specific Inhibitors of Cruzain (without detergent)). Details: purified cruzain, Z-FR-AMC fluorescence, no detergent.
Summary of the method: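 Detergent-free condition (0.00005% Triton X-100) in acetate buffer pH 5.5 with DTT. 1.5 nM enzyme and compound were pre-mixed 15 min, then 2 uM Z-FR-AMC substrate added; reaction progress from fluorescence change between first and third reads (60 s).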
Note: nearly all actives have a fitted effect of over 40% in size.
Potency is the fitted concentration of half-maximal effect; tags give direction and shape of the fitted curve.
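Throughout, for max response, negative = inhibition: plate controls were enzyme without inhibitor for no effect and buffer without enzyme for full effect.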

Chain of UniProt P25779 (P25779 whole entry, looked up): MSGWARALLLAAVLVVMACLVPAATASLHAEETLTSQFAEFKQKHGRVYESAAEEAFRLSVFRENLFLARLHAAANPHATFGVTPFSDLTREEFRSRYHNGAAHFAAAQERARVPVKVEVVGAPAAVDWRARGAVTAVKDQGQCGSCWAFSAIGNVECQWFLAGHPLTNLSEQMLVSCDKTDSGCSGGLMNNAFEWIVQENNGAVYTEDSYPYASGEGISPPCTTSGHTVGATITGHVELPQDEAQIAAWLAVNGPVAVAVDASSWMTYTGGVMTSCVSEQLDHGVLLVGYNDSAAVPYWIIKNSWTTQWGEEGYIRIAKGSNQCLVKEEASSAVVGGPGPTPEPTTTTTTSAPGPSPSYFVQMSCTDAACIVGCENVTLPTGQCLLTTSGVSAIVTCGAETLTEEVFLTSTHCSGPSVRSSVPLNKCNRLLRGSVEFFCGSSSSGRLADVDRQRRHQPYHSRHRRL

| Compound | Potency | max response, negative = inhibition |
| --- | --- | --- |
| COc1ccc(-c2cc(C(F)(F)F)nc(S(=O)(=O)CCCC(=O)Nc3ccccc3C(F)(F)F)n2)cc1OC | inconclusive: 25.1 µM [activator, single point] |  |
| COc1ccc(CNC(=O)c2c(N)n(CCCN3CCOCC3)c3nc4ccccc4nc23)cc1 | inconclusive: 31.6 µM [activator, partial curve] |  |
| COC(=O)c1ccc(C(=O)OC)c(NS(=O)(=O)c2ccc(NC(C)=O)cc2)c1 |  | inactive: 9.89% |
| COCCCNC(=O)C1CCN(c2nnc(-n3cccc3CNc3ccc(C)cc3)s2)CC1 | inconclusive: 31.6 µM [activator, single point] |  |
| COc1cc2[nH]c(=O)n(CCCC(=O)NCc3ccccc3Cl)c(=O)c2cc1OC |  | inactive: 5.45% |
| CCOC(=O)c1cnc(-n2nc(C)cc2C)nc1NCCc1ccccc1 | inconclusive: 12.6 µM [activator, single point] |  |
| S=C(NCCC(c1ccccc1)c1ccccc1)Nc1ccc(Cl)cc1 | inconclusive: 39.8 µM [inhibitor, single point] |  |
| C=CCn1c(SCCOc2ccc(OC)cc2)nnc1C(CO)NC(=O)c1ccc(OC)cc1 (stereo not given) | inconclusive: 31.6 µM [activator, single point] |  |
| COc1ccc(C(NC(=O)C2CCCCC2)c2c(O)ccc3ccccc23)cc1 (stereo not given) | inconclusive: 25.1 µM [inhibitor, single point] |  |
| O=C(CSc1nc(-c2ccco2)nc2cc(=O)[nH]n12)Nc1ccccc1Cl | inconclusive: 10 µM [activator, partial curve] |  |
| COCCCNC(=O)/C(C#N)=c1\s/c(=C\c2ccccc2OC(F)F)c(=O)n1CCCOC | inconclusive: 39.8 µM [activator, single point] |  |
| O=C(Cn1c(=O)oc2ccccc21)NCc1ccccc1Cl |  | inactive: -5.19% |
| Cc1ccc(S(=O)(=O)NCC(=O)OCC(=O)Nc2ncc(Cl)cc2Cl)cc1 | active: 25.1 µM |  |
| O=C(NC1CCCC1)C(c1ccncc1)N(Cc1cccs1)C(=O)c1csnn1 (stereo not given) | inconclusive: 39.8 µM [inhibitor, single point] |  |
| Cc1ccc2scc(N3CCN(c4ccccc4)CC3)c(=O)c2c1 |  | inactive: 1.76% |
| CCOC(=O)[C@@H](O)Cc1cnc2ccccc2n1 |  | inactive: -0.713% |
| O=C1c2ccccc2[C@@H]([C@@H]2c3ccccc3C(=O)c3cc(Br)ccc32)c2ccc(Br)cc21 |  | inactive: -4.01% |
| Cc1cc(N2CCCCC2)nc2ccc(NC(=O)CCC(=O)N3CCN(c4cccc(Cl)c4)CC3)cc12 | inconclusive: 31.6 µM [inhibitor, single point] |  |
| CNC(=S)N(CCc1ccccc1)Cc1cc2cc(OC)c(OC)cc2[nH]c1=O | inconclusive: 31.6 µM [activator, single point] |  |
| Fc1ccc(-c2ccnc3nc(N4CCN(c5ccccc5)CC4)nn23)cc1 | inconclusive: 39.8 µM [activator, single point] |  |
| COc1ccc(/C=C/C(=O)c2sc(-c3ccc(Cl)cc3)nc2C)cc1 | inconclusive: 31.6 µM [inhibitor, single point] |  |
| Cc1ccc(C)c(Cn2c(=O)n(-c3ccc(CC(=O)NCc4ccco4)cc3)c(=O)c3sccc32)c1 | inconclusive: 25.1 µM [inhibitor, single point] |  |

| Compound | Potency | max response, negative = inhibition |
| --- | --- | --- |
| CC(C)=CCOc1ccc(/C=C/C(=O)c2ccc(OCC=C(C)C)cc2OCC(=O)O)cc1 | inconclusive: 6.31 µM [activator, single point] |  |
| COc1ccc(-c2csc3ncnc(Nc4ccc(OC)c(OC)c4)c23)cc1 |  | inactive: 8.47% |
| CCOc1ccc(CCNC(=O)c2ccc(Cn3c(=O)c4cccn4c4cccnc43)cc2)cc1 |  | inactive: -2.72% |
| COc1cccc(C(=O)c2sc(Nc3ccc(C)cc3C)c(S(=O)(=O)c3ccccc3)c2N)c1 | active: 7.94 µM |  |
| COc1ccc(S(=O)(=O)Nc2cc(C(=O)NC3CCCCCC3)ccc2N2CCOCC2)cc1 | inconclusive: 25.1 µM [activator, partial curve] |  |
| COc1ccc2nc(Nc3nc(C)c(C(C)=O)s3)sc2c1 | inconclusive: 31.6 µM [activator, single point] |  |
| Cc1ccc(NC(=O)Cn2c(=O)n(Cc3nc(-c4ccccc4)no3)c(=O)c3cc4c(cc32)OCO4)cc1C | active: 10 µM |  |
| COc1ccccc1N1CCN(C(c2ccccc2)c2nnc(-c3ccccc3Cl)o2)CC1 (stereo not given) | inconclusive: 25.1 µM [activator, single point] |  |
| CCOc1ccc(OCC)c(NC(=O)CN(c2ccc(C)cc2)S(=O)(=O)c2c(C)n[nH]c2C)c1 | inconclusive: 20 µM [activator, partial curve] |  |
| CCC1CCCCN1C(=O)Cn1c(=O)n(-c2ccccc2C(F)(F)F)c(=O)c2c(C)c(C(=O)N(C)C)sc21 (stereo not given) | inconclusive: 25.1 µM [activator, single point] |  |
| Cc1ccc(-n2c(O)c(/C=N/NC(=O)C3COc4ccccc4O3)c3ccccc3c2=O)cc1 (stereo not given) |  | inactive: 12% |
| COc1cc(Cl)c(NS(=O)(=O)c2ccc3[nH]c(=O)ccc3c2)c(OC)c1 |  | inactive: 1.31% |
| Cc1ccc(C)c(NC(=O)C2CCCN(S(=O)(=O)c3cccc4nsnc34)C2)c1 (stereo not given) |  | inactive: -4.61% |
| N#CC1=C(SCC(=O)Nc2cccc3cccnc23)NC(=O)C(C#N)C12CCCCC2 (stereo not given) | inconclusive: 25.1 µM [inhibitor, single point] |  |
| Cc1cccc(NC(=O)Nc2ccc(C)cc2Br)c1 | inconclusive: 39.8 µM [inhibitor, single point] |  |
| CN(C)CCNc1oc(/C=C/c2ccccc2)nc1C#N | active: 25.1 µM |  |
| CC(C)CNC(=O)COC(=O)c1cc(S(=O)(=O)N2CCCCC2)ccc1N1CCOCC1 | inconclusive: 31.6 µM [activator, single point] |  |
| COc1cc2c(cc1OC)CN(C(=O)c1cc(S(=O)(=O)N3CCOCC3)ccc1Cl)CC2 | inconclusive: 39.8 µM [activator, single point] |  |
| COC(=O)C1=C(C)NC(C)=C(C(=O)OC)C1c1ccc(-c2cccc(Cl)c2Cl)o1 | inconclusive: 20 µM [inhibitor, partial curve, poor fit] |  |
| COc1ccc(NC(=O)Cn2c(=O)n(CCc3ccccc3)c(=O)c3sc4ccccc4c32)cc1 |  | inactive: 0.421% |
| Cc1cc(C)nc(-n2nc(C)c3c2NC(=O)CC3c2ccccc2OC(C)C)n1 (stereo not given) |  | inactive: 20.3% |
| CCOC(=O)c1ccc(N2C(=O)c3[nH]nc(-c4ccccc4)c3C2c2cccs2)cc1 (stereo not given) |  | inactive: 8.49% |

| Compound | Potency | max response, negative = inhibition |
| --- | --- | --- |
| COc1ccc(CCNc2nc(SCc3ccccc3Cl)nc3ccccc23)cc1OC |  | inactive: 2.79% |
| Cc1cc2c(cc1C)CSC(c1c(O)ccc3ccccc13)SC2 | inconclusive: 39.8 µM [inhibitor, single point] |  |
| COC(=O)c1cccnc1-n1c(=O)c2cccnc2n(Cc2ccc(Cl)cc2)c1=O | inconclusive: 25.1 µM [activator, single point] |  |
| Cc1ccc(S(=O)(=O)N(CC(=O)Nc2ccccc2-c2ccccc2)c2ccc(C)cc2C)cc1 | inconclusive: 39.8 µM [inhibitor, single point] |  |
| CCN(CC)S(=O)(=O)c1ccc(N2CCOCC2)c(NS(=O)(=O)c2ccc(C)c(C)c2)c1 | inconclusive: 39.8 µM [activator, single point] |  |
| COc1ccc(Nc2nc(N)nc(CSc3nc4ccccc4s3)n2)cc1 | inconclusive: 39.8 µM [inhibitor, single point] |  |
| CCN1C(=O)c2ccccc2Sc2ccc(NC(=O)Nc3ccc(Br)c(C)c3)cc21 | active: 7.94 µM |  |
| Cc1nc(C)c(CCNC(=O)c2ccc(C(F)(F)F)cc2)s1 |  | inactive: 1.26% |
| CCC1CN(C(=O)NCc2cccc(OC)c2)c2ccccc2O1 (stereo not given) | inconclusive: 39.8 µM [inhibitor, single point] |  |
| CCOC(=O)c1cc2cc3ccccc3cc2[nH]1 | active: 25.1 µM |  |
| COC(=O)C1=C(C)N=C2SC(C)C(=O)N2C1/C=C/c1ccccc1 (stereo not given) | inconclusive: 39.8 µM [inhibitor, single point] |  |
| O=C(Cc1c[nH]c2ccccc12)N1CCc2ccccc21 | inconclusive: 20 µM [inhibitor, partial curve] |  |
| O=[N+]([O-])c1cccc(/C=N\N2CCN(c3ccc(Cl)cc3)CC2)c1 | active: 25.1 µM |  |
| Brc1ccc(C2=Nc3cccc4cccc(c34)N2)o1 | inconclusive: 39.8 µM [inhibitor, single point] |  |
| COc1cc(C(=O)Sc2ccc(C)cc2)cc(OC)c1OC | inconclusive: 39.8 µM [activator, single point] |  |
| O=C(O)/C=C(/C(=O)O)[C@]12CCN3CC4=CCO[C@@H]5CC(=O)N[C@@H]1C5[C@H]4C[C@H]32 (stereo not given in full) |  | inactive: 6.63% |
| CCCCN1C(=O)C(O)(c2c(C)[nH]c3ccccc23)c2cc(Br)ccc21 (stereo not given) | inconclusive: 39.8 µM [activator, single point] |  |
| COc1ccc(CNC(=O)C2CCN(C(=O)[C@@H](CC(C)C)NC(=O)OC(C)(C)C)CC2)cc1 | inconclusive: 25.1 µM [activator, single point] |  |
| Cc1ccc(NC(=O)C2(NC(=O)c3ccccn3)CCCCC2)cc1Br | inconclusive: 31.6 µM [inhibitor, single point] |  |
| CCN(CC)c1nc2ccccc2nc1C(C#N)C(=O)NCCCOC (stereo not given) | inconclusive: 31.6 µM [activator, single point] |  |
| CCc1ccc(NC(=O)N(Cc2c[nH]c3ccccc23)C2CCCCCC2)cc1 | inconclusive: 7.94 µM [activator, single point] |  |
